Reference: the supplement of paper PMC3334620
Whole data set: some 33,000 sequences, median “E-score (-0.5 to 0.5)” near -0.04, cut for the highest 2% near 0.36. The list shows a part of the results.

target: T1, Hmlalpha2 (UniProt P0CY09); assay: PBM E-score (8-mer binding enrichment) (E-score (-0.5 to 0.5)); higher = stronger / more preferred TF binding; most listed sequences are background and not binding sites; conditions: protein concentration: 200 nM; construct: GST-full length
T1 sequence: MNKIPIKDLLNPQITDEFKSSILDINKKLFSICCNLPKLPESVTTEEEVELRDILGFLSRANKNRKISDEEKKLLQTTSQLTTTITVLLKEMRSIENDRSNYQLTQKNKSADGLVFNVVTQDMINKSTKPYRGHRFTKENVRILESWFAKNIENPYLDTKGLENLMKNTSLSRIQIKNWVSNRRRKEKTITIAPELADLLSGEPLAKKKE
Outline: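 Yeast transcription factors carrying a GST tag, as full-length proteins or DNA-binding domains, were produced by PURExpress in vitro transcription/translation. About 100-200 nM protein was applied to universal all-10-mer Agilent arrays, double-stranded by primer extension on fresh or once-stripped slides. Bound protein was detected with fluorescent anti-GST, and scans were normalised with masliner. The Universal PBM Analysis Suite gave each ungapped eight-base word, pooled with its reverse complement, an E-score, a modified Wilcoxon-Mann-Whitney statistic.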

Row | Sequence | PBM E-score
1 | TATTGACA | 0.303
2 | CCAGGTCC | -0.333
3 | ACGGATAT | 0.0727
4 | AGCGCGAA | -0.0236
5 | CTGCGGAA | -0.283
6 | GATATTCA | -0.165
7 | AATTAGCT | 0.0319
8 | GCCCCCCC | -0.373
9 | CGTGTACA | 0.467
10 | CACTTTAA | 0.0285
11 | ATACCACG | 0.0559
12 | AGATTCGC | -0.135
13 | ATGGCGTG | -0.00649
14 | CCTAGACG | -0.214
15 | CTAATTTA | 0.25
16 | CACTGCAG | -0.197
17 | GAAAGCGC | -0.011
18 | GAACCTTC | -0.06
19 | ACCAAAGT | -0.0226
20 | CGAAGCAG | -0.247
21 | AACCAGTG | -0.035
22 | ACAGCTGG | -0.162
23 | TTCCTCAA | 0.036
24 | GTAAAAGA | 0.293
25 | AGGAGCCA | -0.196

Row | Sequence | PBM E-score
26 | AACACTCA | 0.131
27 | TGGTGGAA | -0.0717
28 | ACAGGCCG | -0.00834
29 | GAGTACTC | 0.0474
30 | GCAGTGTA | 0.292
31 | AGTCTCCG | -0.22
32 | AAGGACAT | 0.201
33 | GCTGCCAC | -0.213
34 | GAAAAATA | 0.035
35 | AGATACTC | -0.0627
36 | ACTGACGA | 0.057
37 | TAAGTTAA | 0.179
38 | ACATCGCG | 0.177
39 | GATTGTGC | 0.0144
40 | TCGGTAAA | 0.19
41 | CCTGCCGC | -0.316
42 | ACCAGCTC | -0.0549
43 | CGTCAACG | 0.0662
44 | AAAATCCT | -0.033
45 | ATGCCCGG | -0.309
46 | CCTGGATA | -0.306
47 | ACCTTTTA | 0.00411
48 | ATCCTTTG | -0.0584
49 | CCGCCGCG | -0.202
50 | GATCGGCC | -0.222

Row | Sequence | PBM E-score
51 | CACTTTTC | -0.135
52 | GTATGCAC | 0.133
53 | ACGATACC | -0.0403
54 | AAGCAGAT | -0.145
55 | CGTGTCTC | 0.0847
56 | ATGTCACC | -0.02
57 | CGTACACA | 0.347
58 | TGCGATAA | 0.123
59 | TGCAAACA | 0.193
60 | CGAATCGA | 0.178
61 | ACTAGGCG | 0.00872
62 | GTTGTAGA | 0.325
63 | CGTTGCTC | 0.00228
64 | ATCCCGCG | -0.117
65 | CGAAAAGA | 0.199
66 | ATGTAGAA | 0.43
67 | AAATCGCC | -0.343
68 | CACAGTTA | 0.265
69 | CAATCAAG | 0.0126
70 | ATGAGTTG | -0.00258
71 | CGTACGCC | 0.0378
72 | GGGAGCTA | -0.105
73 | GAGCGTGA | -0.134
74 | CTCGTGGA | -0.107
75 | ATAAGGCA | -0.0529

Row | Sequence | PBM E-score
76 | GAATGTCC | -0.108
77 | AAGGATCA | -0.0579
78 | TAGCTGGA | -0.104
79 | AACTTTAA | 0.135
80 | ATGAAGAC | 0.028
81 | GAAAGCCA | -0.278
82 | AAAAATTA | 0.172
83 | CTGTCACA | 0.00436
84 | ATGCGTGC | 0.15
85 | CATCAACA | 0.297
86 | CACATGTG | 0.163
87 | AATGTCCG | -0.122
88 | AGACTGGA | -0.0528
89 | TGAGCTCA | 0.0748
90 | CCTGGCTA | -0.198
91 | CACAAGGC | 0.033
92 | CAGGAGTC | -0.149
93 | AGTTACTG | 0.0811
94 | ATGATGTC | 0.0939
95 | ACTGAAAT | -0.0297
96 | CCCTCAGG | -0.294
97 | AGAAATGG | -0.106
98 | CGATCCGC | -0.177
99 | ACTCGGGA | -0.201
100 | AGTATTAC | 0.317

Row | Sequence | PBM E-score
101 | AACGTGGC | 0.012
102 | CACAGAGA | 0.0962
103 | AAGCCCAA | 0.017
104 | CAATCTAG | 0.0661
105 | CAACCGGA | -0.0983
106 | GACCTGCC | -0.209
107 | CGGTAAAA | 0.152
108 | CCTTCCTC | -0.273
109 | CACTAACG | 0.0194
110 | GAATATTC | -0.0157
111 | GCGTGACC | -0.136
112 | GAATCCAA | -0.269
113 | GACGGGAC | -0.311
114 | ACCCAGTG | -0.0618
115 | AAGGAAAC | -0.113
116 | ACACACTA | 0.305
117 | AATGCATT | -0.0692
118 | ATCCAACG | -0.135
119 | CAGGTTAC | 0.018
120 | AACCATGA | 0.149
121 | CGGAGAGA | -0.145
122 | TAGCGATA | 0.0182
123 | AGGCGAAA | -0.282
124 | CAGGATGG | -0.197
125 | CGGGCGAA | -0.173

Row | Sequence | PBM E-score
126 | GGGCGAAC | -0.178
127 | GTCGGTTA | -0.121
128 | CATCTTCC | -0.0227
129 | ACCGTCGT | -0.0335
130 | ACATTGGC | 0.126
131 | CACCGGAC | -0.124
132 | CTATTTCA | 0.0151
133 | CTGGGCTA | -0.159
134 | ACGAGCAG | 0.017
135 | AGCGACGG | -0.0437
136 | CGCCAGGA | -0.115
137 | AAATCATA | 0.166
138 | AAGCGAAC | 0.0416
139 | CGCGCTCA | 0.00653
140 | ATACGACC | -0.238
141 | ATCAACTA | 0.201
142 | GCAAAGGA | 0.048
143 | ACATACCC | 0.32
144 | GAATTGCC | -0.248
145 | ATATTCCC | -0.241
146 | AAAGCAGA | -0.141
147 | GACCAACC | -0.0726
148 | CAAGAGGA | -0.0687
149 | CGCCAGCG | -0.232
150 | ACATGATC | 0.426

Row | Sequence | PBM E-score
151 | TTGTGAAA | 0.179
152 | AAGGTTTA | 0.14
153 | CACCCTGC | -0.15
154 | ACGGAAGC | 0.0529
155 | TACCTCAA | -0.00402
156 | GCATTCCC | -0.251
157 | AAGGGTCA | -0.22
158 | ATCTTCTA | -0.0325
159 | GATTTGGA | -0.00992
160 | CATAAATC | 0.0257
161 | GAGTAACA | 0.258
162 | ATTATGCA | 0.113
163 | CCGGGAAA | -0.124
164 | AAAGCATG | 0.218
165 | GGGAGGGA | -0.282
166 | GCTCTCCC | -0.266
167 | AAAATATT | 0.0282
168 | AATGGGGC | -0.307
169 | AGTGGACC | -0.288
170 | ATGTCCGA | -0.0418
171 | CATTAAAC | 0.289
172 | CGATTTAA | 0.0944
